{"source": "paper PMC3398040", "binders": {"B1": {"name": "endogenous Ddi1, P40087 1-428 (protein)", "chain": "MDLTISNELTGEIYGPIEVSEDMALTDLIALLQADCGFDKTKHDLYYNMDILDSNRTQSLKELGLKTDDLLLIRGKISNSIQTDAATLSDEAFIEQFRQELLNNQMLRSQLILQIPGLNDLVNDPLLFRERLGPLILQRRYGGYNTAMNPFGIPQDEYTRLMANPDDPDNKKRIAELLDQQAIDEQLRNAIEYTPEMFTQVPMLYINIEINNYPVKAFVDTGAQTTIMSTRLAKKTGLSRMIDKRFIGEARGVGTGKIIGRIHQAQVKIETQYIPCSFTVLDTDIDVLIGLDMLKRHLACVDLKENVLRIAEVETSFLSEAEIPKSFQEGLPAPTSVTTSSDKPLTPTKTSSTLPPQPGAVPALAPRTGMGPTPTGRSTAGATTATGRTFPEQTIKQLMDLGFPRDAVVKALKQTNGNAEFAASLLFQ"}, "B2": {"name": "HIS-tagged core of Ddi1 without the UbL and UbA domains (^HISΔΔDdi1) (domain or fragment, UniProt P40087 180-325)", "chain": "QQAIDEQLRNAIEYTPEMFTQVPMLYINIEINNYPVKAFVDTGAQTTIMSTRLAKKTGLSRMIDKRFIGEARGVGTGKIIGRIHQAQVKIETQYIPCSFTVLDTDIDVLIGLDMLKRHLACVDLKENVLRIAEVETSFLSEAEIPK"}, "B3": {"name": "GST-tagged Rpn1 (^GSTRpn1), P38764 1-993 (protein)", "chain": "MVDESDKKQQTIDEQSQISPEKQTPNKKDKKKEEEEQLSEEDAKLKTDLELLVERLKEDDSSLYEASLNALKESIKNSTSSMTAVPKPLKFLRPTYPDLCSIYDKWTDPNLKSSLADVLSILAMTYSENGKHDSLRYRLLSDVSDFEGWGHEYIRHLALEIGEVYNDQVEKDAEDETSSDGSKSDGSAATSGFEFSKEDTLRLCLDIVPYFLKHNGEEDAVDLLLEIESIDKLPQFVDENTFQRVCQYMVACVPLLPPPEDVAFLKTAYSIYLSQNELTDAIALAVRLGEEDMIRSVFDATSDPVMHKQLAYILAAQKTSFEYEGVQDIIGNGKLSEHFLYLAKELNLTGPKVPEDIYKSHLDNSKSVFSSAGLDSAQQNLASSFVNGFLNLGYCNDKLIVDNDNWVYKTKGDGMTSAVASIGSIYQWNLDGLQQLDKYLYVDEPEVKAGALLGIGISASGVHDGEVEPALLLLQDYVTNPDTKISSAAILGLGIAFAGSKNDEVLGLLLPIAASTDLPIETAAMASLALAHVFVGTCNGDITTSIMDNFLERTAIELKTDWVRFLALALGILYMGQGEQVDDVLETISAIEHPMTSAIEVLVGSCAYTGTGDVLLIQDLLHRLTPKNVKGEEDADEEETAEGQTNSISDFLGEQVNEPTKNEEAEIEVDEMEVDAEGEEVEVKAEITEKKNGESLEGEEIKSEEKKGKSSDKDATTDGKNDDEEEEKEAGIVDELAYAVLGIALIALGEDIGKEMSLRHFGHLMHYGNEHIRRMVPLAMGIVSVSDPQMKVFDTLTRFSHDADLEVSMNSIFAMGLCGAGTNNARLAQLLRQLASYYSREQDALFITRLAQGLLHLGKGTMTMDVFNDAHVLNKVTLASILTTAVGLVSPSFMLKHHQLFYMLNAGIRPKFILALNDEGEPIKVNVRVGQAVETVGQAGRPKKITGWITQSTPVLLNHGERAELETDEYISYTSHIEGVVILKKNPDYREEE"}, "B4": {"name": "GST-tagged Rpn10 (^GSTRpn10), P38886 1-268 (protein)", "chain": "MVLEATVLVIDNSEYSRNGDFPRTRFEAQIDSVEFIFQAKRNSNPENTVGLISGAGANPRVLSTFTAEFGKILAGLHDTQIEGKLHMATALQIAQLTLKHRQNKVQHQRIVAFVCSPISDSRDELIRLAKTLKKNNVAVDIINFGEIEQNTELLDEFIAAVNNPQEETSHLLTVTPGPRLLYENIASSPIILEEGSSGMGAFGGSGGDSDANGTFMDFGVDPSMDPELAMALRLSMEEEQQRQERLRQQQQQQDQPEQSEQPEQHQDK"}}, "key": {"[1]": {"molecular_target": "T1, GST-tagged Rpn1 (^GSTRpn1) (yeast), P38764", "T1 chain": "B3 chain", "experiment": "pull-down; GST-Rpn1, GST-Rpn10 or GST on GSH beads incubated with yeast extract with myc-Cdc53 and GFP-Ho mixed with bacterial lysate with HIS-Ufo1 (Figure 3B); only the target purified", "conditions": "remark: other sources report otherwise"}, "[2]": {"molecular_target": "T2, HIS-tagged Rpn1 (^HISRpn1) (yeast), P38764", "T2 chain": "B3 chain", "experiment": "co-IP; bacterial lysates with HIS-Rpn1 and GST-Ufo1 mixed with yeast extract with myc-Cdc53 and GFP-Ho; aliquots immunoprecipitated with anti-myc, anti-GFP, anti-GST or anti-HIS and Protein A beads (Figure 4, + Ho)", "conditions": "remark: other sources report otherwise"}, "[3]": {"molecular_target": "T2, HIS-tagged Rpn1 (^HISRpn1) (yeast), …", "experiment": "co-IP; as a6 but yeast extract without GFP-Ho; immunoprecipitated with anti-myc, anti-GST or anti-HIS (Figure 4, - Ho)", "conditions": "remark: other sources report otherwise"}, "[4]": {"molecular_target": "T3, GST-tagged Cdc53 (^GSTCdc53) (S. cerevisiae) (UniProt Q12018)", "T3 sequence": "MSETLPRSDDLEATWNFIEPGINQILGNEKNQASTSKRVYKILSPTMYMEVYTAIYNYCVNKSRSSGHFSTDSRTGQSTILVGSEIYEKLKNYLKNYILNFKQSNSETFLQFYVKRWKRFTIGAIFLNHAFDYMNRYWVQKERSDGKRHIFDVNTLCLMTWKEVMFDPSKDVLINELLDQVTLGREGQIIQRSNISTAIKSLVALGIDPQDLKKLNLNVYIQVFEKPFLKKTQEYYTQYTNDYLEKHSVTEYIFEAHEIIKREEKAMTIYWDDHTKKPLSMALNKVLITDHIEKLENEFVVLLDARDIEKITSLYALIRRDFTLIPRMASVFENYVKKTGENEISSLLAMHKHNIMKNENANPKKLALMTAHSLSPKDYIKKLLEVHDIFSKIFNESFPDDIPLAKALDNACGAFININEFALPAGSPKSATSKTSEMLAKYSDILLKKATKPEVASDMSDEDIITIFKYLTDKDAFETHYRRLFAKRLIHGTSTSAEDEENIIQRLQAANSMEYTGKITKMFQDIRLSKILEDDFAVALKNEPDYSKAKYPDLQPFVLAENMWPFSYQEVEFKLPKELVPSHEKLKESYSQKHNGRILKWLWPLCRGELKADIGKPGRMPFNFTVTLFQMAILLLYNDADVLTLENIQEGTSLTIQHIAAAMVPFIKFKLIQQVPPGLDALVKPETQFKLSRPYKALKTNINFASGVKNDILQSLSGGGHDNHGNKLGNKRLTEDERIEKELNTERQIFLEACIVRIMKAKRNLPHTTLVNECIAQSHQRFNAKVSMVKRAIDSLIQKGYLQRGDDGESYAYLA", "experiment": "pull-down; recombinant GST fusion on GSH beads incubated with bacterial lysate holding a HIS-tagged protein; Western blot (Figures 1C, 3C, 3D, 5D, 5E with Rpn1 alone); only the target purified"}, "[5]": {"molecular_target": "T4, GST-tagged Rpn1 (^GSTRpn1) (yeast) (UniProt P38764)", "T4 sequence": "B3 chain", "experiment": "pull-down; recombinant GST fusion on GSH beads incubated with bacterial lysate holding a HIS-tagged protein; Western blot (Figures 1C, 3C, 3D, 5D, 5E with Rpn1 alone); only the target purified"}, "[6]": {"molecular_target": "T5, GST-tagged Rpn10 (^GSTRpn10) (yeast) (UniProt P38886)", "T5 sequence": "B4 chain", "experiment": "pull-down; recombinant GST fusion on GSH beads incubated with bacterial lysate holding a HIS-tagged protein; Western blot (Figures 1C, 3C, 3D, 5D, 5E with Rpn1 alone); only the target purified"}, "[7]": {"molecular_target": "T6, HIS-tagged Ddi1 (^HISDdi1) (yeast), P40087", "T6 chain": "B1 chain", "experiment": "pull-down; HIS-Ddi1 on Ni beads incubated with one lysate or extract alone (GST-Rpn1 or GST-Ufo1 bacterial lysate, GFP-Ho or GFP-Ufo1 yeast extract); washed with 2.5% Triton X100 and 100 mM imidazole (Figure 5A lanes 4-6, Figure 5B lanes 3 and 4); only the target purified", "conditions": "remark: other sources report otherwise"}, "[8]": {"molecular_target": "T6, HIS-tagged Ddi1 (^HISDdi1) (yeast), …", "experiment": "pull-down; HIS-Ddi1 or HIS-ΔΔDdi1 on Ni beads incubated with a constant amount of GFP-Ufo1 yeast extract and x3 the amount of GST-Rpn1 lysate (Figure 5B); only the target purified", "conditions": "remark: other sources report otherwise"}, "[9]": {"molecular_target": "T6, HIS-tagged Ddi1 (^HISDdi1) (yeast), …", "experiment": "pull-down; HIS-Ddi1 on Ni beads incubated with GST-Ufo1 and/or GST-Rpn1 lysate together with yeast extract with ubiquitylated GFP-Ho (Figure 5A lanes 8-10); only the target purified", "conditions": "remark: other sources report otherwise"}, "[10]": {"molecular_target": "T6, HIS-tagged Ddi1 (^HISDdi1) (yeast), …", "experiment": "pull-down; HIS-Ddi1 on Ni beads incubated with Ufo1 (GST-Ufo1 lysate or GFP-Ufo1 extract) together with GST-Rpn1 lysate at x1 or x2, no Ho (Figure 5A lane 7, Figure 5B lanes 5 and 6, Figure 5C); only the target purified", "conditions": "remark: other sources report otherwise"}, "[11]": {"molecular_target": "T6, HIS-tagged Ddi1 (^HISDdi1) (yeast), …", "experiment": "pull-down; HIS-Ddi1 on Ni beads incubated with GST-Ufo1 lysate mixed with increasing amounts of GST-Rpn10 lysate (Figure 5C); only the target purified", "conditions": "remark: other sources report otherwise"}}, "note": "No constants are given. Whether binding was seen depends on the method and setting. Binding seen in cells or lysates may run through a third protein. Some entries that bind do so weakly or less than the wild type. Sequences can lack the tags named with a protein."}
{"binder": "B1", "values": [{"measurement": "binding", "setting": "[1]", "value": "binds"}, {"measurement": "binding", "setting": "[2]", "value": "binds"}, {"measurement": "binding", "setting": "[3]", "value": "binds"}]}
{"binder": "B2", "values": [{"measurement": "binding", "setting": "[4]", "value": "binds"}, {"measurement": "binding", "setting": "[5]", "value": "binds"}, {"measurement": "binding", "setting": "[6]", "value": "binds weakly"}]}
{"binder": "B3", "values": [{"measurement": "binding", "setting": "[7]", "value": "binds"}, {"measurement": "binding", "setting": "[8]", "value": "binds"}, {"measurement": "binding", "setting": "[9]", "value": "binds"}, {"measurement": "binding", "setting": "[10]", "value": "binds"}]}
{"binder": "B4", "values": [{"measurement": "binding", "setting": "[11]", "value": "binds"}]}
